Measured values as given in the supplement of paper PMC8728848.
The list shows a part of the results.

What was measured:
Assay in all cases: glycan array binding signal (z-score within array); higher = stronger binding
Details in all cases: glycan notation: IUPAC condensed, linker removed
[1] = biological target: Neu5Ac(a2-3)Gal(b1-4)GlcNAc(b1-3)Gal(b1-4)GlcNAc(b1-2)Man(a1-3)[Neu5Ac(a2-3)Gal(b1-4)GlcNAc(b1-3)Gal(b1-4)GlcNAc(b1-2)Man(a1-6)]Man(b1-4)GlcNAc(b1-4)GlcNAc
How it was run: (§1)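 Columns mapping to the same glycan were averaged after glycan names were converted to IUPAC-condensed notation. The data come from 3228 arrays in the Consortium for Functional Glycomics database, limited to those with an available protein sequence. Binding is reported as a within-array Z-score averaged across arrays of one protein sequence and across linkers.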

[2] = biological target: Neu5Ac(a2-3)Gal(b1-4)GlcNAc(b1-3)Gal(b1-4)GlcNAc(b1-3)Gal(b1-4)GlcNAc
How it was run: as §1

[3] = biological target: Neu5Ac(a2-3)Gal(b1-4)GlcNAc(b1-3)Gal(b1-4)GlcNAc(b1-3)Gal(b1-4)GlcNAc(b1-2)Man(a1-3)[Neu5Ac(a2-3)Gal(b1-4)GlcNAc(b1-3)Gal(b1-4)GlcNAc(b1-3)Gal(b1-4)GlcNAc(b1-2)Man(a1-6)]GalNAc
How it was run: as §1

[4] = biological target: Neu5Ac(a2-3)Gal(b1-4)GlcNAc(b1-3)Gal(b1-4)GlcNAc(b1-3)GalNAc
How it was run: as §1

[5] = biological target: Neu5Ac(a2-3)Gal(b1-4)GlcNAc(b1-3)Gal(b1-4)GlcNAc(b1-3)[Neu5Ac(a2-3)Gal(b1-4)GlcNAc(b1-3)Gal(b1-4)GlcNAc(b1-6)]GalNAc
How it was run: as §1

[6] = biological target: Neu5Ac(a2-3)Gal(b1-4)GlcNAc(b1-3)Gal(b1-4)GlcNAc(b1-6)[Gal(b1-3)]GalNAc
How it was run: as §1

[7] = biological target: Neu5Ac(a2-3)Gal(b1-4)GlcNAc(b1-3)Gal(b1-4)[Fuc(a1-3)]GlcNAc
How it was run: as §1

[8] = biological target: Neu5Ac(a2-3)Gal(b1-4)GlcNAc(b1-3)GalNAc
How it was run: as §1

[9] = biological target: Neu5Ac(a2-3)Gal(b1-4)GlcNAc(b1-3)[Neu5Ac(a2-3)Gal(b1-4)GlcNAc(b1-6)]GalNAc
How it was run: as §1

[10] = biological target: Neu5Ac(a2-3)Gal(b1-4)GlcNAc(b1-6)GalNAc
How it was run: as §1

[11] = biological target: Neu5Ac(a2-3)Gal(b1-4)GlcNAc(b1-6)[Gal(b1-3)]GalNAc
How it was run: as §1

[12] = biological target: Neu5Ac(a2-3)Gal(b1-4)GlcNAc(b1-6)[Neu5Ac(a2-3)Gal(b1-3)]GalNAc
How it was run: as §1

[13] = biological target: Neu5Ac(a2-3)Gal(b1-4)GlcNAc6S
How it was run: as §1

[14] = biological target: Neu5Ac(a2-3)Gal(b1-4)[Fuc(a1-3)]GlcNAc
How it was run: as §1

[15] = biological target: Neu5Ac(a2-3)Gal(b1-4)[Fuc(a1-3)]GlcNAc(b1-2)Man
How it was run: as §1

[16] = biological target: Neu5Ac(a2-3)Gal(b1-4)[Fuc(a1-3)]GlcNAc(b1-3)Gal
How it was run: as §1

[17] = biological target: Neu5Ac(a2-3)Gal(b1-4)[Fuc(a1-3)]GlcNAc(b1-3)Gal(b1-4)GlcNAc
How it was run: as §1

[18] = biological target: Neu5Ac(a2-3)Gal(b1-4)[Fuc(a1-3)]GlcNAc(b1-3)Gal(b1-4)[Fuc(a1-3)]GlcNAc(b1-3)Gal(b1-4)[Fuc(a1-3)]GlcNAc
How it was run: as §1

[19] = biological target: Neu5Ac(a2-3)Gal(b1-4)[Fuc(a1-3)]GlcNAc(b1-3)GalNAc
How it was run: as §1

[20] = biological target: Neu5Ac(a2-3)Gal(b1-4)[Fuc(a1-3)]GlcNAc(b1-6)[Gal(b1-3)]GalNAc
How it was run: as §1

[21] = biological target: Neu5Ac(a2-3)Gal(b1-4)[Fuc(a1-3)]GlcNAc(b1-6)[Neu5Ac(a2-3)Gal(b1-3)]GalNAc
How it was run: as §1

[22] = biological target: Neu5Ac(a2-3)Gal(b1-4)[Fuc(a1-3)]GlcNAc6S
How it was run: as §1

[23] = biological target: Neu5Ac(a2-3)Gal6S(b1-4)GlcNAc
How it was run: as §1

[24] = biological target: Neu5Ac(a2-3)Gal6S(b1-4)[Fuc(a1-3)]GlcNAc
How it was run: as §1

Neu5Ac(a2-3)GalNAc = biological target: Neu5Ac(a2-3)GalNAc
How it was run: as §1

[25] = biological target: Neu5Ac(a2-3)GalNAc(b1-4)GlcNAc
How it was run: as §1

[26] = biological target: Neu5Ac(a2-3)[GalNAc(b1-4)]Gal(b1-4)Glc
How it was run: as §1

[27] = biological target: Neu5Ac(a2-3)[GalNAc(b1-4)]Gal(b1-4)GlcNAc
How it was run: as §1

[28] = biological target: Neu5Ac(a2-3)[GalNAc(b1-4)]Gal(b1-4)GlcNAc(b1-3)GalNAc
How it was run: as §1

[29] = biological target: Neu5Ac(a2-3)[Neu5Ac(a2-6)]GalNAc
How it was run: as §1

Neu5Ac(a2-6)Gal = biological target: Neu5Ac(a2-6)Gal
How it was run: as §1

[30] = biological target: Neu5Ac(a2-6)Gal(b1-3)GlcNAc(b1-3)[Gal(b1-4)GlcNAc(b1-6)]Gal(b1-4)Glc
How it was run: as §1

Neu5Ac(a2-6)Gal(b1-4)Glc = biological target: Neu5Ac(a2-6)Gal(b1-4)Glc
How it was run: as §1

[31] = biological target: Neu5Ac(a2-6)Gal(b1-4)GlcNAc
How it was run: as §1

[32] = biological target: Neu5Ac(a2-6)Gal(b1-4)GlcNAc(b1-2)Man
How it was run: as §1

[33] = biological target: Neu5Ac(a2-6)Gal(b1-4)GlcNAc(b1-2)Man(a1-3)Man(b1-4)GlcNAc(b1-4)GlcNAc
How it was run: as §1

[34] = biological target: Neu5Ac(a2-6)Gal(b1-4)GlcNAc(b1-2)Man(a1-3)[Gal(b1-4)GlcNAc(b1-2)Man(a1-6)]Man(b1-4)GlcNAc(b1-4)GlcNAc
How it was run: as §1

[35] = biological target: Neu5Ac(a2-6)Gal(b1-4)GlcNAc(b1-2)Man(a1-3)[GlcNAc(b1-2)Man(a1-6)]Man(b1-4)GlcNAc(b1-4)GlcNAc
How it was run: as §1

B1: Siglec-9 (Homo sapiens), Q9Y336 (protein)
chain: MLLLLLPLLWGRERAEGQTSKLLTMQSSVTVQEGLCVHVPCSFSYPSHGWIYPGPVVHGYWFREGANTDQDAPVATNNPARAVWEETRDRFHLLGDPHTKNCTLSIRDARRSDAGRYFFRMEKGSIKWNYKHHRLSVNVTALTHRPNILIPGTLESGCPQNLTCSVPWACEQGTPPMISWIGTSVSPLDPSTTRSSVLTLIPQPQDHGTSLTCQVTFPGASVTTNKTVHLNVSYPPQNLTMTVFQGDGTVSTVLGNGSSLSLPEGQSLRLVCAVDAVDSNPPARLSLSWRGLTLCPSQPSNPGVLELPWVHLRDAAEFTCRAQNPLGSQQVYLNVSLQSKATSGVTQGVVGGAGATALVFLSFCVIFVVVRSCRKKSARPAAGVGDTGIEDANAVRGSASQGPLTEPWAEDSPPDQPPPASARSSVGEGELQYASLSFQMVKPWDSRGQEATDTEYSEIKIHR
B1 was tested, and the “glycan array binding signal (z-score)” value [1] was -0.006, the “glycan array binding signal (z-score)” value [2] was 0.033 and the “glycan array binding signal (z-score)” value [3] was 0.156. For the same binder, the “glycan array binding signal (z-score)” value [4] was -0.124, the “glycan array binding signal (z-score)” value [5] was -0.187 and the “glycan array binding signal (z-score)” value [6] was -0.145. For the same binder, the “glycan array binding signal (z-score)” value [7] was -0.009, the “glycan array binding signal (z-score)” value [8] was 0.42 and the “glycan array binding signal (z-score)” value [9] was 0.569. The “glycan array binding signal (z-score)” value [10] was 0.247, the “glycan array binding signal (z-score)” value [11] was 0.033 and the “glycan array binding signal (z-score)” value [12] was 0.207. For the same binder, the “glycan array binding signal (z-score)” value [13] was 2.21, the “glycan array binding signal (z-score)” value [14] was 1.14 and the “glycan array binding signal (z-score)” value [15] was 14.8. The “glycan array binding signal (z-score)” value [16] was 0.641, the “glycan array binding signal (z-score)” value [17] was -0.033 and the “glycan array binding signal (z-score)” value [18] was -0.007. The “glycan array binding signal (z-score)” value [19] was -0.122, the “glycan array binding signal (z-score)” value [20] was -0.125 and the “glycan array binding signal (z-score)” value [21] was -0.088. The “glycan array binding signal (z-score)” value [22] was 16.8, the “glycan array binding signal (z-score)” value [23] was -0.043 and the “glycan array binding signal (z-score)” value [24] was -0.311. For the same binder, the “glycan array binding signal (z-score)” value (Neu5Ac(a2-3)GalNAc) was -0.183, the “glycan array binding signal (z-score)” value [25] was 0.468 and the “glycan array binding signal (z-score)” value [26] was -0.131. The “glycan array binding signal (z-score)” value [27] was -0.277, the “glycan array binding signal (z-score)” value [28] was 0.047 and the “glycan array binding signal (z-score)” value [29] was -0.051. The “glycan array binding signal (z-score)” value (Neu5Ac(a2-6)Gal) was 0.007, the “glycan array binding signal (z-score)” value [30] was -0.316 and the “glycan array binding signal (z-score)” value (Neu5Ac(a2-6)Gal(b1-4)Glc) was 0.192. The “glycan array binding signal (z-score)” value [31] was 0.498, the “glycan array binding signal (z-score)” value [32] was -0.006 and the “glycan array binding signal (z-score)” value [33] was 0.17. The “glycan array binding signal (z-score)” value [34] was -0.118 and the “glycan array binding signal (z-score)” value [35] was -0.331.
